# Data as given in the supplement of paper PMC8728848.
# The list shows a part of the results.
# B1: Di AAL2 (Agrocybe aegerita) (protein)
# chain: MTSNVITQDLPIPVASRGFADIVGFGLDGVVIGRNAVNLQPFLAVKNFAQNAGGWLTTKHVRLIADTTGTGKGDIVGFGNAGVYVSVNNGKNTFADPPKMVIANFGYDAGGWRVEKHLRYLADIRKIGRADIIGFGEKGVLVSRNNGGLNFGPATLVLKDFGYDAGGWRLDRHLRFLADVTGNGHLDIVGFGDKHVFISRNNGDGTFAPAKSVIDNFCIDAGGWKIGDHPRFVADLTGDGTADIIGCGKAGCWVALNNGGGVFGQVKLVINDFGTDKGWQAAKHPRFIADLTGNGRGDVVGFGNAGVYVALNNGDGTFQSAKLVLKDFGVQQGWTVSKHRRFVVDLTGDGCADIIGFGEKETLVSYNDGKGNFGPVKALTNDFSFSGGKWAPETTVCWMANLDSSRHPAPAPMTSNVITQDLPIPVASRGFADIVGFGLDGVVIGRNAVNLQPFLAVKNFAQNAGGWLTTKHVRLIADTTGTGKGDIVGFGNAGVYVSVNNGKNTFADPPKMVIANFGYDAGGWRVEKHLRYLADIRKIGRADIIGFGEKGVLVSRNNGGLNFGPATLVLKDFGYDAGGWRLDRHLRFLADVTGNGHLDIVGFGDKHVFISRNNGDGTFAPAKSVIDNFCIDAGGWKIGDHPRFVADLTGDGTADIIGCGKAGCWVALNNGGGVFGQVKLVINDFGTDKGWQAAKHPRFIADLTGNGRGDVVGFGNAGVYVALNNGDGTFQSAKLVLKDFGVQQGWTVSKHRRFVVDLTGDGCADIIGFGEKETLVSYNDGKGNFGPVKALTNDFSFSGGKWAPETTVCWMANLDSSRH
# Assays:
# Experiment in all cases: glycan array binding signal (z-score within array); higher = stronger binding
# Settings in all cases: glycan notation: IUPAC condensed, linker removed
# [1] = target: Neu5Ac(a2-3)Gal(b1-4)GlcNAc(b1-3)[Neu5Ac(a2-3)Gal(b1-4)GlcNAc(b1-6)]GalNAc
# How it was run: (§1)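 Arrays were curated from the Consortium for Functional Glycomics database, 3228 in total, and kept only where the protein sequence was available. Binding is expressed as a within-array Z-score. This score was averaged across arrays of the same protein sequence at different concentrations or buffers and across linkers, and negative values can be read as non-binding.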
# [2] = target: Neu5Ac(a2-3)Gal(b1-4)GlcNAc(b1-6)GalNAc
# How it was run: as §1
# [3] = target: Neu5Ac(a2-3)Gal(b1-4)GlcNAc(b1-6)[Gal(b1-3)]GalNAc
# How it was run: as §1
# [4] = target: Neu5Ac(a2-3)Gal(b1-4)GlcNAc(b1-6)[Neu5Ac(a2-3)Gal(b1-3)]GalNAc
# How it was run: as §1
# [5] = target: Neu5Ac(a2-3)Gal(b1-4)GlcNAc6S
# How it was run: as §1
# [6] = target: Neu5Ac(a2-3)Gal(b1-4)[Fuc(a1-3)]GlcNAc
# How it was run: as §1
# [7] = target: Neu5Ac(a2-3)Gal(b1-4)[Fuc(a1-3)]GlcNAc(b1-2)Man
# How it was run: as §1
# [8] = target: Neu5Ac(a2-3)Gal(b1-4)[Fuc(a1-3)]GlcNAc(b1-3)Gal
# How it was run: as §1
# [9] = target: Neu5Ac(a2-3)Gal(b1-4)[Fuc(a1-3)]GlcNAc(b1-3)Gal(b1-4)GlcNAc
# How it was run: as §1
# [10] = target: Neu5Ac(a2-3)Gal(b1-4)[Fuc(a1-3)]GlcNAc(b1-3)Gal(b1-4)[Fuc(a1-3)]GlcNAc(b1-3)Gal(b1-4)[Fuc(a1-3)]GlcNAc
# How it was run: as §1
# [11] = target: Neu5Ac(a2-3)Gal(b1-4)[Fuc(a1-3)]GlcNAc(b1-3)GalNAc
# How it was run: as §1
# [12] = target: Neu5Ac(a2-3)Gal(b1-4)[Fuc(a1-3)]GlcNAc(b1-6)[Gal(b1-3)]GalNAc
# How it was run: as §1
# [13] = target: Neu5Ac(a2-3)Gal(b1-4)[Fuc(a1-3)]GlcNAc(b1-6)[Neu5Ac(a2-3)Gal(b1-3)]GalNAc
# How it was run: as §1
# [14] = target: Neu5Ac(a2-3)Gal(b1-4)[Fuc(a1-3)]GlcNAc6S
# How it was run: as §1
# [15] = target: Neu5Ac(a2-3)Gal6S(b1-4)GlcNAc
# How it was run: as §1
# [16] = target: Neu5Ac(a2-3)Gal6S(b1-4)[Fuc(a1-3)]GlcNAc
# How it was run: as §1
# Neu5Ac(a2-3)GalNAc = target: Neu5Ac(a2-3)GalNAc
# How it was run: as §1
# [17] = target: Neu5Ac(a2-3)GalNAc(b1-4)GlcNAc
# How it was run: as §1
# [18] = target: Neu5Ac(a2-3)[GalNAc(b1-4)]Gal(b1-4)Glc
# How it was run: as §1
# [19] = target: Neu5Ac(a2-3)[GalNAc(b1-4)]Gal(b1-4)GlcNAc
# How it was run: as §1
# [20] = target: Neu5Ac(a2-3)[GalNAc(b1-4)]Gal(b1-4)GlcNAc(b1-3)GalNAc
# How it was run: as §1
# [21] = target: Neu5Ac(a2-3)[Neu5Ac(a2-6)]GalNAc
# How it was run: as §1
# Neu5Ac(a2-6)Gal = target: Neu5Ac(a2-6)Gal
# How it was run: as §1
# [22] = target: Neu5Ac(a2-6)Gal(b1-3)GlcNAc(b1-3)[Gal(b1-4)GlcNAc(b1-6)]Gal(b1-4)Glc
# How it was run: as §1
# Neu5Ac(a2-6)Gal(b1-4)Glc = target: Neu5Ac(a2-6)Gal(b1-4)Glc
# How it was run: as §1
# [23] = target: Neu5Ac(a2-6)Gal(b1-4)GlcNAc
# How it was run: as §1
# [24] = target: Neu5Ac(a2-6)Gal(b1-4)GlcNAc(b1-2)Man
# How it was run: as §1
# [25] = target: Neu5Ac(a2-6)Gal(b1-4)GlcNAc(b1-2)Man(a1-3)Man(b1-4)GlcNAc(b1-4)GlcNAc
# How it was run: as §1
# [26] = target: Neu5Ac(a2-6)Gal(b1-4)GlcNAc(b1-2)Man(a1-3)[Gal(b1-4)GlcNAc(b1-2)Man(a1-6)]Man(b1-4)GlcNAc(b1-4)GlcNAc
# How it was run: as §1
# [27] = target: Neu5Ac(a2-6)Gal(b1-4)GlcNAc(b1-2)Man(a1-3)[GlcNAc(b1-4)][Neu5Ac(a2-6)Gal(b1-4)GlcNAc(b1-2)Man(a1-6)]Man(b1-4)GlcNAc(b1-4)GlcNAc
# How it was run: as §1
# [28] = target: Neu5Ac(a2-6)Gal(b1-4)GlcNAc(b1-2)Man(a1-3)[Man(a1-6)]Man(b1-4)GlcNAc(b1-4)GlcNAc
# How it was run: as §1
# [29] = target: Neu5Ac(a2-6)Gal(b1-4)GlcNAc(b1-2)Man(a1-3)[Neu5Ac(a2-3)Gal(b1-4)GlcNAc(b1-2)Man(a1-6)]Man(b1-4)GlcNAc(b1-4)GlcNAc
# How it was run: as §1
# [30] = target: Neu5Ac(a2-6)Gal(b1-4)GlcNAc(b1-2)Man(a1-3)[Neu5Ac(a2-6)Gal(b1-4)GlcNAc(b1-2)Man(a1-6)]Man(b1-4)GlcNAc(b1-4)GlcNAc
# How it was run: as §1
# [31] = target: Neu5Ac(a2-6)Gal(b1-4)GlcNAc(b1-2)Man(a1-3)[Neu5Ac(a2-6)Gal(b1-4)GlcNAc(b1-2)Man(a1-6)]Man(b1-4)GlcNAc(b1-4)[Fuc(a1-6)]GlcNAc
# How it was run: as §1
# [32] = target: Neu5Ac(a2-6)Gal(b1-4)GlcNAc(b1-2)Man(a1-6)Man(b1-4)GlcNAc(b1-4)GlcNAc
# How it was run: as §1
# [33] = target: Neu5Ac(a2-6)Gal(b1-4)GlcNAc(b1-2)Man(a1-6)[Gal(b1-4)GlcNAc(b1-2)Man(a1-3)]Man(b1-4)GlcNAc(b1-4)GlcNAc
# How it was run: as §1
# [34] = target: Neu5Ac(a2-6)Gal(b1-4)GlcNAc(b1-2)Man(a1-6)[GlcNAc(b1-2)Man(a1-3)]Man(b1-4)GlcNAc(b1-4)GlcNAc
# How it was run: as §1
# [35] = target: Neu5Ac(a2-6)Gal(b1-4)GlcNAc(b1-2)Man(a1-6)[Man(a1-3)]Man(b1-4)GlcNAc(b1-4)GlcNAc
# How it was run: as §1
# [36] = target: Neu5Ac(a2-6)Gal(b1-4)GlcNAc(b1-2)[Neu5Ac(a2-6)Gal(b1-4)GlcNAc(b1-4)]Man(a1-3)[GlcNAc(b1-4)][Neu5Ac(a2-6)Gal(b1-4)GlcNAc(b1-2)[Neu5Ac(a2-6)Gal(b1-4)GlcNAc(b1-6)]Man(a1-6)]Man(b1-4)GlcNAc(b1-4)GlcNAc
# How it was run: as §1
# [37] = target: Neu5Ac(a2-6)Gal(b1-4)GlcNAc(b1-2)[Neu5Ac(a2-6)Gal(b1-4)GlcNAc(b1-4)]Man(a1-3)[GlcNAc(b1-4)][Neu5Ac(a2-6)Gal(b1-4)GlcNAc(b1-4)Man(a1-6)]Man(b1-4)GlcNAc(b1-4)GlcNAc
# How it was run: as §1
# [38] = target: Neu5Ac(a2-6)Gal(b1-4)GlcNAc(b1-2)[Neu5Ac(a2-6)Gal(b1-4)GlcNAc(b1-6)]Man(a1-6)[Neu5Ac(a2-6)Gal(b1-4)GlcNAc(b1-2)Man(a1-3)][GlcNAc(b1-4)]Man(b1-4)GlcNAc(b1-4)GlcNAc
# How it was run: as §1
# [39] = target: Neu5Ac(a2-6)Gal(b1-4)GlcNAc(b1-3)Gal(b1-3)GlcNAc
# How it was run: as §1
# [40] = target: Neu5Ac(a2-6)Gal(b1-4)GlcNAc(b1-3)Gal(b1-4)GlcNAc
# How it was run: as §1
# [41] = target: Neu5Ac(a2-6)Gal(b1-4)GlcNAc(b1-3)Gal(b1-4)GlcNAc(b1-2)Man(a1-3)[Neu5Ac(a2-6)Gal(b1-4)GlcNAc(b1-3)Gal(b1-4)GlcNAc(b1-2)Man(a1-6)]GalNAc
# How it was run: as §1
# [42] = target: Neu5Ac(a2-6)Gal(b1-4)GlcNAc(b1-3)Gal(b1-4)GlcNAc(b1-3)Gal(b1-4)GlcNAc
# How it was run: as §1
# [43] = target: Neu5Ac(a2-6)Gal(b1-4)GlcNAc(b1-3)Gal(b1-4)GlcNAc(b1-3)Gal(b1-4)GlcNAc(b1-2)Man(a1-3)[Neu5Ac(a2-6)Gal(b1-4)GlcNAc(b1-3)Gal(b1-4)GlcNAc(b1-3)Gal(b1-4)GlcNAc(b1-2)Man(a1-6)]GalNAc
# How it was run: as §1
binder,measurement,setting,value
B1,glycan array binding signal (z-score),[1],-0.145
same,glycan array binding signal (z-score),[2],-0.218
same,glycan array binding signal (z-score),[3],-0.257
same,glycan array binding signal (z-score),[4],-0.204
same,glycan array binding signal (z-score),[5],0.088
same,glycan array binding signal (z-score),[6],-0.211
same,glycan array binding signal (z-score),[7],-0.258
same,glycan array binding signal (z-score),[8],-0.249
same,glycan array binding signal (z-score),[9],-0.168
same,glycan array binding signal (z-score),[10],-0.282
same,glycan array binding signal (z-score),[11],-0.309
same,glycan array binding signal (z-score),[12],-0.336
same,glycan array binding signal (z-score),[13],-0.307
same,glycan array binding signal (z-score),[14],0.011
same,glycan array binding signal (z-score),[15],-0.006
same,glycan array binding signal (z-score),[16],-0.156
same,glycan array binding signal (z-score),Neu5Ac(a2-3)GalNAc,-0.281
same,glycan array binding signal (z-score),[17],-0.21
same,glycan array binding signal (z-score),[18],-0.292
same,glycan array binding signal (z-score),[19],-0.296
same,glycan array binding signal (z-score),[20],-0.285
same,glycan array binding signal (z-score),[21],-0.265
same,glycan array binding signal (z-score),Neu5Ac(a2-6)Gal,-0.266
same,glycan array binding signal (z-score),[22],-0.328
same,glycan array binding signal (z-score),Neu5Ac(a2-6)Gal(b1-4)Glc,-0.28
same,glycan array binding signal (z-score),[23],-0.311
same,glycan array binding signal (z-score),[24],-0.307
same,glycan array binding signal (z-score),[25],-0.325
same,glycan array binding signal (z-score),[26],-0.205
same,glycan array binding signal (z-score),[27],-0.319
same,glycan array binding signal (z-score),[28],-0.328
same,glycan array binding signal (z-score),[29],-0.267
same,glycan array binding signal (z-score),[30],-0.269
same,glycan array binding signal (z-score),[31],-0.282
same,glycan array binding signal (z-score),[32],-0.327
same,glycan array binding signal (z-score),[33],-0.33
same,glycan array binding signal (z-score),[34],0.064
same,glycan array binding signal (z-score),[35],-0.329
same,glycan array binding signal (z-score),[36],-0.312
same,glycan array binding signal (z-score),[37],-0.301
same,glycan array binding signal (z-score),[38],-0.315
same,glycan array binding signal (z-score),[39],-0.261
same,glycan array binding signal (z-score),[40],-0.239
same,glycan array binding signal (z-score),[41],-0.119
same,glycan array binding signal (z-score),[42],-0.09
same,glycan array binding signal (z-score),[43],-0.101
